# Laboratory results published in patent publication US20250043025A1 (CALICO LIFE SCIENCES, published 2025).
# Tests used:
# mouse PAPP-A = target: T1, mouse PAPP-A (mouse, UniProt Q8R4K8 82-1624, limits assumed); assay: SPR (Biacore), antibody captured on goat anti-human IgG Fc, PAPP-A as analyte
# T1 construct: Printed as 'full length'
# Text: (§1) A goat antibody specific to the Fc region of human IgG (Thermo Fisher Scientific, Waltham, MA, USA) was used to capture the monoclonal antibodies. The Fc specific antibody was covalently immobilized on carboxymethyl dextran matrix of the Biacore™ CM5 biosensor chip (Cytiva Life Sciences, Marlborough, MA, USA) via amino groups using an amine coupling kit (Cytiva) and the immobilization wizard option of the Biacore™ (Cytiva) instrument's controlling software. Carboxyl groups of the dextran matrix on the chip were activated with 100 mM N-hydroxysuccinimide and 400 mM 1-ethyl-3-(3-dimethylaminopropyl) carbodiimide hydrochloride. Goat anti-human IgG Fc (25 μg/mL; Thermo Fisher), diluted in 10 mM sodium acetate, pH 4.5, was injected across the activated surface. Once the level of binding response reached the targeted value of 10000 Resonance Units (RU), unreacted groups were deactivated by injection of 1 M ethanolamine. Approximately 10,000 RU of goat anti-human IgG Fc was immobilized on the chip surface of the flow cells, while a modified control matrix surface with similarly conjugated goat anti-human IgG Fc antibody was used as a reference surface.
# (§2) Anti-PAPP-A monoclonal antibodies were diluted in the running buffer (HEPES buffered saline; HBS-P+, Cytiva) plus 0.1 mg/mL bovine serum albumin) to the concentration of 1 μg/mL were injected over the goat anti-human IgG Fc surface at a flow rate of 50 μL/minute for 25 seconds to achieve capture level of ˜100 to 110 RU. The net difference in the baseline signal and the signal after the completion of the antibody injection was taken to represent the amount of bound monoclonal antibody.
# (§3) Each antigen binding experiment consisted of antigen association and antigen dissociation phases. Aliquots of recombinant PAPP-A proteins were injected at different concentrations at a flow rate of 50 μL/minute, for five minutes over the captured monoclonal antibodies and the reference surface to determine association rates.
# [1] = target: NHP (cynomolgus monkey) PAPP-A (cynomolgus monkey (NHP), UniProt A0A2K5WE98 87-1619); assay: as above
# Text: as §1, §2, §3
# [2] = target: PAPP-A (species not stated for this assay) (Homo sapiens (Human), UniProt Q13219 82-1627); assay: cell-based or functional assay
# Chain of UniProt Q13219 (Q13219 82-1627 limits assumed): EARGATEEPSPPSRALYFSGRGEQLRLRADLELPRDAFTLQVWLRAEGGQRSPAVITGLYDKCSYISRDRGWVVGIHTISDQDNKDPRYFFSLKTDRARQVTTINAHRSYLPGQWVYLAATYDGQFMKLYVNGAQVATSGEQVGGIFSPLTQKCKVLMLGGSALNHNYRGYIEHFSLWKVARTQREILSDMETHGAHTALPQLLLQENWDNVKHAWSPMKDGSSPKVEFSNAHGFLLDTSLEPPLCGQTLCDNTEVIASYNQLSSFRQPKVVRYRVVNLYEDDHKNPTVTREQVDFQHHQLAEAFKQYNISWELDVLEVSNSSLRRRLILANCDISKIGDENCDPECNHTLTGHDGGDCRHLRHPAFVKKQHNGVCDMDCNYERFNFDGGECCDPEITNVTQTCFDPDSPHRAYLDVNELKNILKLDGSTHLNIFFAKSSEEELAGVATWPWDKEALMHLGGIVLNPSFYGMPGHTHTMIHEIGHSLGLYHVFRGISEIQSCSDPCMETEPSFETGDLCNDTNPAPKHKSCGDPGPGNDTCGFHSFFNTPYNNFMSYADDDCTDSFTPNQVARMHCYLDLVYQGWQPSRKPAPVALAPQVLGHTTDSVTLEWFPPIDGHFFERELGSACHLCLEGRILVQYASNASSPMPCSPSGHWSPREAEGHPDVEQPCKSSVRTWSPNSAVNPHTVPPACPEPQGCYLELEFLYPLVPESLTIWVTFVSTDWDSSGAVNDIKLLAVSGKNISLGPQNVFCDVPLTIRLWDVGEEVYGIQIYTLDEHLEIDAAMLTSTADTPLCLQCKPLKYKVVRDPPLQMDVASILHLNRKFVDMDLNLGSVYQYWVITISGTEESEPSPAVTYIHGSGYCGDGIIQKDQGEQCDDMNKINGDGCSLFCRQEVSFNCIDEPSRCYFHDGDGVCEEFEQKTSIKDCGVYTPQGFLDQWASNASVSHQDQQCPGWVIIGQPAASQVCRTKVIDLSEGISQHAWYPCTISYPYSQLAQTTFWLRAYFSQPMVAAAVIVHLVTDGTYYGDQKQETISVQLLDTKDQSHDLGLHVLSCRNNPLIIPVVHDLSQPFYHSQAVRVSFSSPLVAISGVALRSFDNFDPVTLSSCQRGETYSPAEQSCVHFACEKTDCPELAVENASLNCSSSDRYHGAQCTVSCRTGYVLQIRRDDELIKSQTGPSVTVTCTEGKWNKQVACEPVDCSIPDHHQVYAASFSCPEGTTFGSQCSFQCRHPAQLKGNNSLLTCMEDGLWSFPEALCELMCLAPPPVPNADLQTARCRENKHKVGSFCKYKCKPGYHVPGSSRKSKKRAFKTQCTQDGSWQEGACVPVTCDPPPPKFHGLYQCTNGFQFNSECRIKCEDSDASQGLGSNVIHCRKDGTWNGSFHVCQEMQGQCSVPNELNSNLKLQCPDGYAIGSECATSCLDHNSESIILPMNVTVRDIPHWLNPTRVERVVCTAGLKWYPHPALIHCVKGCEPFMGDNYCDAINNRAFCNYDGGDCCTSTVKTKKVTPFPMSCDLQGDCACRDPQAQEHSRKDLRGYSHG
# Chain of UniProt A0A2K5WE98 (A0A2K5WE98 entry or part of it): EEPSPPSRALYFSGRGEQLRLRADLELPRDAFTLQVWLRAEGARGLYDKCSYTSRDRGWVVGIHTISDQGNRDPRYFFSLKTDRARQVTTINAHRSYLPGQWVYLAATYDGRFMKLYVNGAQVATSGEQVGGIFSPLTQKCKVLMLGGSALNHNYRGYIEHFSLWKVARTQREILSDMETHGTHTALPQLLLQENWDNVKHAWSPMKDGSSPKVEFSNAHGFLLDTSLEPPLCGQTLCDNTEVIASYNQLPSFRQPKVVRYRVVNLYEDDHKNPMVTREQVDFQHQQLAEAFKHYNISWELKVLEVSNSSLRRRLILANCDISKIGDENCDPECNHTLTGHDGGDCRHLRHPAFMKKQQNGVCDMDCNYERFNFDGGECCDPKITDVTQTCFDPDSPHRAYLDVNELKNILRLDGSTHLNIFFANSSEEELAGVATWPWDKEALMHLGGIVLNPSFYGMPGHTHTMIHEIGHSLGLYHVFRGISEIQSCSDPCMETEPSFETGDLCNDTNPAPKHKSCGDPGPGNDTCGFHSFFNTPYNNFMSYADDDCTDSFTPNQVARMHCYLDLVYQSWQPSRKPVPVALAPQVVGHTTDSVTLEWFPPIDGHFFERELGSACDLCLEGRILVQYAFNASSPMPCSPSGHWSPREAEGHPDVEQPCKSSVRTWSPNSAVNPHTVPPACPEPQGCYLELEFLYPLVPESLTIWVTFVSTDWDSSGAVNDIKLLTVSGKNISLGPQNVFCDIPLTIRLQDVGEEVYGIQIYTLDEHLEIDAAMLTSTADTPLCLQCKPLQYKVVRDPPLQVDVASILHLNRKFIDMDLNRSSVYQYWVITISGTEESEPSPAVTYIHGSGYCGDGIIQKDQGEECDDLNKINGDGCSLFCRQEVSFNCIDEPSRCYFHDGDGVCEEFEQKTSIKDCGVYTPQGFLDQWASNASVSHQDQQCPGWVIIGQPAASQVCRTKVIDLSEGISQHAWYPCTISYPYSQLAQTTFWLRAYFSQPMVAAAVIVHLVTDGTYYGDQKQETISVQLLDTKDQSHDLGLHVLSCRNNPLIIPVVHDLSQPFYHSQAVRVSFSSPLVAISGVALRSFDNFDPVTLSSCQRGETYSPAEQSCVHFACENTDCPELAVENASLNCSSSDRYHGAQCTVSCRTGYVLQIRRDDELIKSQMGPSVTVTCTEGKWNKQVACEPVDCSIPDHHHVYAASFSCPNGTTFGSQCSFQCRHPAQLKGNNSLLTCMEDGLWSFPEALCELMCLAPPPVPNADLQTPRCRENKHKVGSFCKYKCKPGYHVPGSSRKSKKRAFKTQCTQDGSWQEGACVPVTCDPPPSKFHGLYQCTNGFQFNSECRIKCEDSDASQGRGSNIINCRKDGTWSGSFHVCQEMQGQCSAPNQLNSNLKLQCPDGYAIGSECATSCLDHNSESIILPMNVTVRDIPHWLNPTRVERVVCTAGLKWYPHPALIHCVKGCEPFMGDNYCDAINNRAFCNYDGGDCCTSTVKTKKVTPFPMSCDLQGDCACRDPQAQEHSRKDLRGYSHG
# Chain of mouse PAPP-A (Q8R4K8 82-1624 limits assumed): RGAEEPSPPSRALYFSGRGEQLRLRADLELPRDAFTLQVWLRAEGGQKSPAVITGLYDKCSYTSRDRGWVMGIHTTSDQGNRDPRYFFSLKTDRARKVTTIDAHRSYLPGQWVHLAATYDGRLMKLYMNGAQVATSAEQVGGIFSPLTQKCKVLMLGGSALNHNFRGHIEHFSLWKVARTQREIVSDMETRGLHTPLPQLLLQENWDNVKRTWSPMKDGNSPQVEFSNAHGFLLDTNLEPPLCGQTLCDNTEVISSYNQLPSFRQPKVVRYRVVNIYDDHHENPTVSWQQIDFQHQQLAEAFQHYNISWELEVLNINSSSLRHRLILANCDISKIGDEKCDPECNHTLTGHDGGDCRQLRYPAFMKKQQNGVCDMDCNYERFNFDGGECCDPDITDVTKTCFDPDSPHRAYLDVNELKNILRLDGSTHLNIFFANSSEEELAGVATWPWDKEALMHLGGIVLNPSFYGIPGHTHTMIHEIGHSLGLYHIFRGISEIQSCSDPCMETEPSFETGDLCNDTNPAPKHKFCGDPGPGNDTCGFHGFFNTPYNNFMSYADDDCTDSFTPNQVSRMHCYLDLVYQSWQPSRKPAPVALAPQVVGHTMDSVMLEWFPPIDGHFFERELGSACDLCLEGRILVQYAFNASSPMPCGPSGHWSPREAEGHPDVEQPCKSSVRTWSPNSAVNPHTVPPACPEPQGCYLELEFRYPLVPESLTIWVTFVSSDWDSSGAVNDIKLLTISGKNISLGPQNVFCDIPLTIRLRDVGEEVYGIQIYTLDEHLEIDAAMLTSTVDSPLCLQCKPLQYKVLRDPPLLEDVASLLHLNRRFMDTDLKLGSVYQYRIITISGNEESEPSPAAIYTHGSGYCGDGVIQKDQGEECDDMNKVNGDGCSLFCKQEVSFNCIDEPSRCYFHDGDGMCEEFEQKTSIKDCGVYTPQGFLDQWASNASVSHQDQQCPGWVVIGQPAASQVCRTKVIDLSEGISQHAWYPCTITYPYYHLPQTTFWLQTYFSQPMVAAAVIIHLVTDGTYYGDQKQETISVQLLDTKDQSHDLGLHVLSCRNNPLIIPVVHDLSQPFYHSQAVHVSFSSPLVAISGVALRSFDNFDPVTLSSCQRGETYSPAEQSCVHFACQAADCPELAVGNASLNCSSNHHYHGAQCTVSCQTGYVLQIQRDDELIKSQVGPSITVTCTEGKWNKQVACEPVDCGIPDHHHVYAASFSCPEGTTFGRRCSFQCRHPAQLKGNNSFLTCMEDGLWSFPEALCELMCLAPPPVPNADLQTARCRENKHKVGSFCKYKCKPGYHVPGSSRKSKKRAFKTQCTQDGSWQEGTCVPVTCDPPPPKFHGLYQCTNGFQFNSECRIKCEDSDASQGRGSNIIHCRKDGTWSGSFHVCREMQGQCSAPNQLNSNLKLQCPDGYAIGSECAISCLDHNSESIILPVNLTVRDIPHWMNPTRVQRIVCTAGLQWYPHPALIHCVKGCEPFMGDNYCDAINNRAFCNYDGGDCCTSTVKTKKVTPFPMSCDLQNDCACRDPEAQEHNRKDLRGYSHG
Binder,Kd (mouse PAPP-A) [nM],Kd [1] [nM],"inhibition of PAPP-A proteolytic activity (IC50) against IGFBP-2, western blotting [2] [nM]","inhibition of PAPP-A proteolytic activity (IC50) against IGFBP-4, western blotting [2] [nM]","inhibition of PAPP-A proteolytic activity (IC50) against IGFBP-5, western blotting [2] [nM]"
"anti-PAPP-A antibody 2 (Ab2) (antibody, human IgG1, kappa, L234A L235A, Fully human IgG) heavy: EVQLVESGGGVVQPGRSLRLSCAASGFTFSSYAMHWVRQAPGKGLEWVAVISYDGSIKYYAD[left out - about 20 residues]MNSLRAEDTAVYYCARHERIPPWGFHTFDIWGQGTLVTVSSASTKGPSVFPLAPSSKSTSGGTAALGCLVKDYFPEPVTVSWNSGALTSGVHTFPAVLQSSGLYSLSSVVTVPSSSLGTQTYICNVNHKPSNTKVDKKV[left out - human IgG1 Fc with changes] light: DIQMTQSPSSLSASVGDRVTITCRASQGISIYLNWYQQKPGKAPKLLIYGASSLQSGVPSRFSGSGSGTDFTLTISSLQPEDFATYYCQQSDGTPWTFGGGTKVEIKRTVAAPSVFIFPPSDEQLKSGTASVVCLLNNFYPREAKVQWKVDNALQSGNSQESVTEQDSKDSTYSLSSTLTLSKADYEKHKVYACEVTHQGLSSPVTKSFNRGEC",0.091,0.024,0.34,0.4,0.04
"anti-PAPP-A antibody 3 (Ab3) (antibody, human IgG1, kappa, L234A L235A, Fully human IgG) heavy: EVQLVESGGGVVQPGRSLRLSCAASGFTFSSYGMHWVRQAPGKGLEWVAVISYDGRNKYYAD[left out - about 20 residues]MNSLRAEDTAVYYCARYKPMPFDVWGQGTLVTVSSASTKGPSVFPLAPSSKSTSGGTAALGCLVKDYFPEPVTVSWNSGALTSGVHTFPAVLQSSGLYSLSSVVTVPSSSLGTQTYICNVNHKPSNTKVDKKV[left out - human IgG1 Fc with changes] light: DIQMTQSPSSLSASVGDRVTITCRASQSISSYLNWYQQKPGKAPKLLIYEASILQSGVPSRFSGSGSGTDFTLTISSLQPEDFATYYCGQSYYTPFPFGGGTKVEIKRTVAAPSVFIFPPSDEQLKSGTASVVCLLNNFYPREAKVQWKVDNALQSGNSQESVTEQDSKDSTYSLSSTLTLSKADYEKHKVYACEVTHQGLSSPVTKSFNRGEC",0.12,0.0072,0.26,0.1,0.18
"anti-PAPP-A antibody 5 (Ab5) (antibody, human IgG1, kappa, L234A L235A, Fully human IgG) heavy: EVQLVESGGGVVQPGRSLRLSCAASGFTFSSYGMHWVRQAPGKGLEWVAVIYYDGRRKYYADSVKGRFTISRDNSKNTLYLQMNSLRAEDTAVYYCARADMHRFDVWGQGTLVTVSSASTKGPSVFPLAPSSKSTSGGTAALGCLVKDYFPEPVTVSWNSGALTSGVHTFPAVLQSSGLYSLSSVVTVPSSSLGTQTYICNVNHKPSNTKVDKKV[left out - human IgG1 Fc with changes] light: DIQMTQSPSSLSASVGDRVTITCRASQDIISYLNWYQQKPGKAPKLLIYVASSLQSGVPSRFSGSGSGTDFTLTISSLQPEDFATYYCQQSYSPPYTFGGGTKVEIKRTVAAPSVFIFPPSDEQLKSGTASVVCLLNNFYPREAKVQWKVDNALQSGNSQESVTEQDSKDSTYSLSSTLTLSKADYEKHKVYACEVTHQGLSSPVTKSFNRGEC",0.18,0.46,0.11,1.88,3.02
"anti-PAPP-A antibody 6 (Ab6) (antibody, human IgG1, kappa, L234A L235A, Fully human IgG) heavy: EVQLLESGGGLVQPGGSLRLSCAASGFTFSSYAMSWVRQAPGKGLEWVSAISMTVGRTYYADSVKGRFTISRDNSKNTLYLQMNSLRAEDTAVYYCARVWGGVRFDVWGQGTLVTVSSASTKGPSVFPLAPSSKSTSGGTAALGCLVKDYFPEPVTVSWNSGALTSGVHTFPAVLQSSGLYSLSSVVTVPSSSLGTQTYICNVNHKPSNTKVDKKV[left out - human IgG1 Fc with changes] light: DIQMTQSPSSLSASVGDRVTITCRASQSISTYLNWYQQKPGKAPKLLIYVASILQSGVPSRFSGSGSGTDFTLTISSLQPEDFATYYCQQSSSTPWTFGGGTKVEIKRTVAAPSVFIFPPSDEQLKSGTASVVCLLNNFYPREAKVQWKVDNALQSGNSQESVTEQDSKDSTYSLSSTLTLSKADYEKHKVYACEVTHQGLSSPVTKSFNRGEC",< 0.003,< 0.001,0.18,0.12,0.09

# Second part, the binder after the results:
Kd (mouse PAPP-A) [nM],Kd [1] [nM],"inhibition of PAPP-A proteolytic activity (IC50) against IGFBP-2, western blotting [2] [nM]","inhibition of PAPP-A proteolytic activity (IC50) against IGFBP-4, western blotting [2] [nM]","inhibition of PAPP-A proteolytic activity (IC50) against IGFBP-5, western blotting [2] [nM]",Binder
< 0.0029,0.017,0.37,0.1,0.07,"anti-PAPP-A antibody 1 (Ab1) (antibody, human IgG1, kappa, L234A L235A, Fully human IgG expressed in EXPI293 cells) heavy: EVQLVESGGGVVQPGRSLRLSCAASGFTFSSYAMHWVRQAPGKGLEWVAVISYDGSIKYYAD[left out - about 20 residues]MNSLRAEDTAVYYCARHNRIYSWGWHTFDIWGQGTLVTVSSASTKGPSVFPLAPSSKSTSGGTAALGCLVKDYFPEPVTVSWNSGALTSGVHTFPAVLQSSGLYSLSSVVTVPSSSLGTQTYICNVNHKPSNTKVDKKV[left out - human IgG1 Fc with changes] light: IQMTQSPSSLSASVGDRVTITCRASQDISIYLNWYQQKPGKAPKLLIYGASSLQSGVPSRFSGSGSGTDFTLTISSLQPEDFATYYCQQADAGPWKFGGGTKVEIKRTVAAPSVFIFPPSDEQLKSGTASVVCLLNNFYPREAKVQWKVDNALQSGNSQESVTEQDSKDSTYSLSSTLTLSKADYEKHKVYACEVTHQGLSSPVTKSFNRGEC"
0.86,0.035,0.31,0.1,0.31,"anti-PAPP-A antibody 4 (Ab4) (antibody, human IgG1, kappa, L234A L235A, Fully human IgG) heavy: EVQLVESGGGVVQPGRSLRLSCAASGFAFSTYGMHWVRQAPGKGLEWVAVIRYDGQEKYYAD[left out - about 20 residues]MNSLRAEDTAVYYCARYKPMPFDVWGQGTLVTVSSASTKGPSVFPLAPSSKSTSGGTAALGCLVKDYFPEPVTVSWNSGALTSGVHTFPAVLQSSGLYSLSSVVTVPSSSLGTQTYICNVNHKPSNTKVDKKV[left out - human IgG1 Fc with changes] light: DIQMTQSPSSLSASVGDRVTITCRASQSISRYLNWYQQKPGKAPKLLIYAASILQSGVPSRFSGSGSGTDFTLTISSLQPEDFATYYCQQSHPTPFTFGGGTKVEIKRTVAAPSVFIFPPSDEQLKSGTASVVCLLNNFYPREAKVQWKVDNALQSGNSQESVTEQDSKDSTYSLSSTLTLSKADYEKHKVYACEVTHQGLSSPVTKSFNRGEC"
